From PubChem BioAssay (NCI)
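Following 48 hours of exposure in 96-well plates, responses at five concentrations were used to interpolate endpoints linearly. GI50 = concentration required for 50% inhibition of growth. TGI denotes the concentration required for complete inhibition of growth.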

Tested on: NCI-H322M lung
Assay: NCI-60 cell line screen, 48 h

In the case of `COc1cc2c(/C=C3/C(=O)Nc4c3ccc3ccccc43)c(Cl)[nH]c2cc1C`, the GI50 is reported as 5.98 µM and the TGI is reported as > 50 µM.

In the case of `[O-][N+]1=C(c2ccccc2)COc2ccccc21`, the TGI is reported as > 100 µM.

With `N=C(N)c1ccc(-c2ccc(-c3ccco3)o2)cc1F` the GI50 was 2.1 µM and the TGI was 5.73 µM.

Work on `Cc1cc2nc3c(C#N)c(-c4ccccc4)cc(Nc4cccc(C(F)(F)F)c4)n3c2cc1C` yielded a TGI of 30.2 µM.

With `Clc1cccc(Cc2cn3cc(-c4ccccc4)nc3s2)c1` the GI50 was 13.3 µM and the TGI was > 100 µM.

With `N#CC(C#N)=Cc1ccc(-c2ccc(-c3nc4ccccc4s3)cc2)s1` the GI50 was 22.8 µM and the TGI was 62.4 µM.

`CN(C)CCOc1cccc(NC2=C(Cl)C(=O)C(Nc3cccc(OCCN(C)C)c3)=C(Cl)C2=O)c1` was tested, and the GI50 was 3.41 µM and the TGI was 13.3 µM.

In the case of `COC1=CC(=O)C2[C@H]3Cc4ccccc4[C@H]3C2(C)C1=O` (some centres not stated), the TGI is reported as > 100 µM.

For `O=C1C=Cc2c(I)sc(I)c21`, the TGI was > 100 µM.

In the case of `COc1cc(CNC(=O)CCCCCCCCCCSSCCCCCCCCCCC(=O)NCc2ccc(O)c(OC)c2)ccc1O`, the TGI is reported as > 10 µM.

`CCOCC[P+](c1ccccc1)(c1ccccc1)c1ccccc1` was tested, and the GI50 was 28.6 µM and the TGI was > 100 µM.
